# Results as given in the supplement of paper PMC10338343.
# ± gives the standard deviation. The list shows a part of the results, in another mix than the full data.
# Test system: MIWI (PIWIL1) piRISC loaded with piRNA #1 (30 nt)
# Experiment: pre-steady-state target cleavage rate (min^-1); MIWI and MILI are mouse PIWI proteins and EfPiwi is from a freshwater sponge; tags in brackets are library labels; higher = faster piRNA-guided slicing of the target
# Details: guide: piRNA #1 5'p-UGAGGUAGUAGGUUGUAUAGUAUCCAGAGG; auxiliary factor: 500 nM mouse GTSF1
# Procedure, shortened: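 Reactions were run for 0–8 or 0–960 min at 33 °C in HEPES–potassium acetate buffer, combining 1 nM active affinity-purified piRISC with one synthetic guide, […] transcribed, DNA-blocked target RNA library and, in some cases, 500 nM GTSF1 partner protein. Sequencing of uncleaved targets followed, with normalisation to depth and to weakly complementary targets. Three trials were pooled, k3 was capped at 0.0001 min^-1, and the pre-steady-state cleavage rate was taken from a burst-and-steady-state fit.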
# 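Also: 1 nM active piRISC with 0.1 nM target library at 33 °C single turnover.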
row,Sequence,pre-steady-state target cleavage rate
1,GGAGACCAUACUAUACUACCUACUAGCUCA,0.35 ± 0.032
2,GGAGACGAUUGUAUACAACCUACUACCUCA,0.11 ± 0.013
3,GGAGACGAAACUAUACAACCUAGUACCUCA,0.491 ± 0.062
4,CCUCAGGAUACAAUACAACCUACUACCUCA,2.01 ± 0.12
5,GGAGUGGAUACUAUACAUCCUACUACCACA,0.437 ± 0.032
6,GGUCAGGAUACUAUAGAACCUACUACCUCA,0.492 ± 0.051
7,GGUCUGCAUACUAUACAACCUACUUCCUCA,0.0157 ± 0.0051
8,GGUCUGGUUACUAUUCAACCUACUACCUCA,1.64 ± 0.11
9,GGAGACCUUAGUAUACAACCUACAACCUCA,0.0975 ± 0.018
10,GGACUGGAUACUAUACAAGCUACAACCUCA,0.506 ± 0.048
11,GCUCUCGAUACUAUACAACCUACUACCUCA,1.86 ± 0.11
12,GGAGACCACUACUAUACAACCUACUACCUCA,1.48 ± 0.12
13,GGAGACCAUACUAUACAACCUACUGACCUCA,0.414 ± 0.038
14,GGUCUGGAUUCUAUACAACCUACAACCUCA,0.497 ± 0.046
15,GCUCUGGGUACUAUACAACCUACUACCUCA,1.76 ± 0.091
16,GGAGACCUAAGUAUACAUCCUACUACCUCA,0.0391 ± 0.0087
17,GGAGUGGAUACUUUACAACCUUCUACCUCA,0.469 ± 0.027
18,GGAGACCAUACUAUACACCUACUACCUCA,0.074 ± 0.011
19,CCUCUGGAUACUAUAGUACCUACUACCUCA,1.51 ± 0.12
20,GGAGACCUUACUAUACAACGUACUACCACA,0.489 ± 0.048

row,Sequence,pre-steady-state target cleavage rate
1,GGAGAGGAUACUAUACAUCGUACUACCUCA,0.224 ± 0.026
2,GGUCUGGAUACUAUACAACCUAGAUCCUCA,0.00874 ± 0.0021
3,CCUCAGGAUACUAAACAACCUACUACCUCA,2.07 ± 0.12
4,CCUCUGGAUACUAAACAACGUACUACCUCA,1.07 ± 0.071
5,GGACUGGAUACUAUACAACCUACUAGCCUCA,0.501 ± 0.074
6,GGACAGGAUACUUUACAACCUACUACCUCA,1.64 ± 0.12
7,GGAGAGGAUACUAUUCAACCUAGUACCUCA,0.0846 ± 0.02
8,GGAGAGGAUACUAUACAAGGUACUACCUCA,0.0561 ± 0.0087
9,GGAGACCUAUCUAUACAACCUACAACGUCA,0.111 ± 0.021
10,GGAGACCUAUGAUAUGUUCCUACUUCCUCA,< 0.0001
11,GCGUCUGGAUACUAUACAACCUACUACCUCA,1.97 ± 0.16
12,GGAGACCUAUGUAUACAACCUACUUCCUCA,0.00815 ± 0.0022
13,GCUCUGGAUACUAUACAACCUAGUACCACA,0.255 ± 0.057
14,CCUCUGGAAACUAUACAACCUACAACCUCA,1.79 ± 0.19
15,GGAGACCUUACUAUACAACCGACUACCUCA,0.0139 ± 0.0025
16,GGAGAGGAUACUAUACAACCUACAUACCUCA,0.914 ± 0.071
17,GGAGUGGUUACUAUACAACCUACUACCUGA,0.29 ± 0.046
18,GGAGACCUAACUAUACAACCUACGACCUCA,0.486 ± 0.051
19,GGUCAGGAUACUAAACAACCUACUACCUCA,1.74 ± 0.096
20,GGAGUGGGUACUAUACAACCUACUACCUCA,1.49 ± 0.092
